In the RNAGym collection of RNA variant scans (doi:10.1093/nar/gkz1192):
Read counts are not given, so values of variants with three or more changes are uncertain.

B1: CPEB3 Ribozyme (parent)
chain: UAACAGGGGGCCACAGCAGAAGCGUUCACGUCGCAGCCCCUGUCAGAUUCUGGUGAAUCUGCGAAUUCUGCUGUAUAUCUC

Variants of: B1
Test: self-cleavage, relative activity (ratio to wild type); higher = more cleavage; in vitro, sequencing
Method in brief: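 Relative activity was defined as the cleaved/total read fraction for a variant divided by the same fraction for the unmutated ribozyme. CPEB3 self-cleaving ribozyme libraries were made by rounds of error-prone PCR, barcoded, and transcribed in vitro with T7 RNA polymerase for 5 hours at 37°C, and cleavage ran through transcription plus a 15 min DNase I step before EDTA. Illumina sequencing of template-switched reverse transcripts gave the reads, and DNA sequencing mapped the barcodes. Averages come from three batches, using variants with at least 5 reads.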

Variant | self-cleavage
A5U A47U U67C | 0.23
A5U G19U U25G U41C A64U | 0.34
A5G U26C U49C U78A | 0.24
A5U A13U U31C U43C A56G A64U | 0.09
A5G G42A A47U U67C | 0.2
A5U C11A G19A C32G U69A U76C | 0.11
A5U G33A U51G U60C C62G U72C | 0.2
A5G U43A A56G | 0.66
A5G U49C U66C G70A U78A | 0.19
A5U U26C A28U A35G C68A | 0.7
A5U C32U U41A | 0.37
A5U U26C U48A U51A G63U | 0.14
A5U G9U A28G U41A U49C U78C | 0.04
A5U G8U U43A U49C | 0.37
A5U A21G U41A U67A | 0.23
A5G U26C A57G U69C | 0.3
A5U C12U G33U U67C | 0.12
A5G U48C U69G | 0.11
A5U C11G A13C U26C U51A U66C | 0.11
A5U A28C C62G | 0.74
A5U C62U A64U U80C | 0.3

Variant | self-cleavage
A5U G53C G61C U69A | 0.26
A5U C44G U80C | 0.83
A5G U26C U48C U54A A75C | 0.33
A5U C62U U66C | 0.21
A5G U41C C68A | 0.31
A5U A18G A35G G52A U58G | 0.8
A5U A13G U76A U78C | 1.19
A5G U26C A47U U80C | 0.52
A5U A18U A28G U41C A57G U67C | 0.07
A5G U69A U76A U78A | 0.65
A5G U48C U54G U80C | 0.39
A5G U58C U72C | 0.21
A5G U54A C62U | 0.29
A5U A28U A35U A64G U78C | 0.49
A5U U41A U43G U51C A57G U58A A77C | 0.07
A5U C11G U26A A47G G52A | 0.06
A5G U43C U54C U67C U72C | 0.07
A5U A21C A35G U60A A65C U67A U72A | 0.04
A5G U43G U54C | 0.1
A5U U43A A47U U49C A64G | 0.31
A5U A13C U41G U43C U72A A77U | 0.09

Variant | self-cleavage
A5U A47G G53A U80C | 1.09
A5G U49A A57G U66C | 0.19
A5U A20G G33A U49G | 0.24
A5G U48G A56G U66C U78A | 0.35
A5G U26A A28G | 0.14
A5U G9A G30A A47G U54C | 0.42
A5U A35G U41G A47G U72A | 0.07
A5U C12U U26A A65U U80C | 0.19
A5G U26C C40U U60G U67A U69A | 0.25
A5U C29U U67C | 0.19
A5G U31A A77U | 0.7
A5U C17G U51A | 0.39
A5U U41C A47G | 0.99
A5U G10A A15G A35G U54G U66A | 0.2
A5U U43A A45G A64G U69C | 0.26
A5U U31C U66C | 0.63
A5U C11G U43A U76C | 0.73
A5G U54A U67C U69C | 0.43
A5G U76A U80C | 0.78
A5U U26A A64G A65G A77G U78A | 0.13
A5G U49C C68A | 0.15

Variant | self-cleavage
A5U U25C U41C U51C U76C U78C | 0.15
A5U G10A U41A U51C A77U | 0.33
A5G U26C U60A U67C | 0.04
A5U A20G A75U | 0.76
A5G U31A A45G A56G A77U | 0.38
A5U C44G U72A | 0.44
A5U U48C U54C U72A | 0.25
A5U U26A G55A | 0.87
A5U U25C U67C | 0.3
A5U A13U U25A C29U U80C | 0.21
A5U A20G A21G A28G C32U U49C | 0.25
A5U G6A U76C | 0.23
A5G G33A U74A | 0.19
A5U C17G U25A A28G U31C U54C U72G | 0.14
A5U U25C U31A U49C U69C | 0.11
A5U A64G U66C | 0.29
A5U A13G U26G C39U A56G U60A U69C | 0.06
A5U G8A C14A A75G | 0.16
A5G U54G A56G U80C | 0.62
A5G U41C G70A U78C | 0.21
A5G U26G G61A U74C A75G | 0.52
